The target in the assay is Melanocortin receptor 4 (Homo sapiens) (UniProt P32245). The experiment in a line: inhibition of agonist-driven MC4R beta-arrestin coupling – luminescence, biased ligand project, U2OS cells, late-stage follow-up (AID 651557). The note with it: U2OS MC4R beta-arrestin recruitment, beta-gal complementation luminescence. (Recruitment of arrestin is a read-out of receptor activation apart from second messengers.)

The text below walks through data of PubChem BioAssay AID651557 (The Scripps Research Institute Molecular Screening Center, 2012).

The source holds more than one record for some entries. They are shown here; other results are not.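 Rule for the calls: active = IC50 half-maximal inhibitory concentration at most 10 µM; inactive = IC50 above 10 µM.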 An entry can have further records. The values listed for one entry repeat one measurement across runs, samples, wells, individuals or studies. Records carry a tag for their origin. Letters count within one entry.

Sequence of UniProt P32245 (P32245 whole entry, looked up): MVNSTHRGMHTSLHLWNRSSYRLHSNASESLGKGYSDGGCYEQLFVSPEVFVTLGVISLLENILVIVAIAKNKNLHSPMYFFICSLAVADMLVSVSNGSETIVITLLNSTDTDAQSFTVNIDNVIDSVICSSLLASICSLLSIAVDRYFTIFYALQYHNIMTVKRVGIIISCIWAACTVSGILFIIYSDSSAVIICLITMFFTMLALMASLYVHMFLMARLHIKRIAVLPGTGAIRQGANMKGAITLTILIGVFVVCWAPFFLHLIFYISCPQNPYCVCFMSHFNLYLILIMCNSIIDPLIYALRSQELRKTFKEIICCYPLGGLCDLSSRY

A word on the IC50: it is the concentration needed to halve the response being measured. As for `CCC1CCCCN1S(=O)(=O)c1ccc(NC(=O)c2nc(S(C)(=O)=O)ncc2Cl)cc1` (stereo unspecified), the IC50 was 2.93 µM [sample A] and inactive [sample B].
